# Laboratory results reported in article PMC4336329 (PLoS ONE, 2015).
# Among all 310,000 compounds or so, about 14,000 (4.5%) showed an effect of 50% or more. The effect is printed as a negative number. The list shows a part of the results.
# Target: human ether-à-go-go-related gene (hERG) potassium channel (human, UniProt Q12809)
# Experiment: primary screen, population patch clamp on CHO cells stably expressing hERG
# 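Note: peak tail current of the secondary pulse compared with the same well before compound.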
# Chain of human ether-à-go-go-related gene (hERG) potassium channel (Q12809 whole entry, looked up): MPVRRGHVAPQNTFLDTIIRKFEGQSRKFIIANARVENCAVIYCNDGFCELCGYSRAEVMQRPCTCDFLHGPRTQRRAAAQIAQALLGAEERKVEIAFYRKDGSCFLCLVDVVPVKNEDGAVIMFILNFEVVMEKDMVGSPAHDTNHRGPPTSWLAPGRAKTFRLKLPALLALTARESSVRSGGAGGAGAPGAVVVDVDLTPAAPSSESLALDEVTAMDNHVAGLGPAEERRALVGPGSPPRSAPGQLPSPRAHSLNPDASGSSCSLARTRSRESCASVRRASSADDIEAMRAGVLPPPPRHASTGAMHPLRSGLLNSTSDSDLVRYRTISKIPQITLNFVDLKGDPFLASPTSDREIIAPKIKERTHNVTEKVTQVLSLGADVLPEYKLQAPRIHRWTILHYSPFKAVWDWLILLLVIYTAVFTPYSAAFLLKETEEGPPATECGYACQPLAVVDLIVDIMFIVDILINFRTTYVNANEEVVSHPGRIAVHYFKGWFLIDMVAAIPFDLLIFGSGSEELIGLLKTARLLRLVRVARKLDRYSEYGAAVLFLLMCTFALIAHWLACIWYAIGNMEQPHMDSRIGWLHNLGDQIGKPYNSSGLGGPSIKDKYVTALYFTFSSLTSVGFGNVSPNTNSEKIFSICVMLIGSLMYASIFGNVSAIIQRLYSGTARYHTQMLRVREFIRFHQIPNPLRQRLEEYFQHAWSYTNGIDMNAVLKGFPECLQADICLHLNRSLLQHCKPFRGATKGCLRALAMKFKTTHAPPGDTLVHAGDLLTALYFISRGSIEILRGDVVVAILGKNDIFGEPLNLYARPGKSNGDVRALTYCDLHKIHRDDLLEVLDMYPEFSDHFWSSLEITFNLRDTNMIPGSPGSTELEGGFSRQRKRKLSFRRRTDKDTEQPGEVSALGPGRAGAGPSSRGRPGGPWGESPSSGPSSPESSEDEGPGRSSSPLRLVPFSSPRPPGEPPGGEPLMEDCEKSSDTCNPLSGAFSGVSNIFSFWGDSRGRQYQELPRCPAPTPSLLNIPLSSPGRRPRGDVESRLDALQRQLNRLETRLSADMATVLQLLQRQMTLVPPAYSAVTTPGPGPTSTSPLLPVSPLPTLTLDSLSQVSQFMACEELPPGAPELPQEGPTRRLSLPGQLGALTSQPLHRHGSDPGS
row,SMILES,"hERG current change (%, negative = inhibition) at 10uM"
1,CCOC(=O)CSc1nnc2c(n1)C1(C)CCC2C1(C)C (centres unmarked),-19.4%
2,O=C(O)CCC(=O)NC(c1ccccc1)c1ccccc1,20.3%
3,Fc1ccc(COc2cccc(-c3n[nH]c(=S)o3)c2)cc1,5.69%
4,CN(C)S(=O)(=O)c1ccc2c(c1)c(=O)c(C(=O)N1CCOCC1)cn2C,14.8%
5,COc1ccc(C)c(S(=O)(=O)Nc2ccc(OCC(=O)O)cc2)c1,24.6%
6,CCOC(=O)N1CCC(NC(=O)C2CCCN(S(=O)(=O)c3ccc4c(c3)oc(=O)n4C)C2)CC1 (centres unmarked),5.14%
7,O=C(COc1ccccc1[N+](=O)[O-])Nc1ccc(N2CCN(C(=O)c3cccs3)CC2)cc1,-15.1%
8,COc1ccc(S(=O)(=O)N(c2onc(C)c2Cl)S(=O)(=O)c2ccc(OC)cc2)cc1,11.9%
9,CCCCn1c(N)c(N(CC(C)C)C(=O)C(C)SCc2nc3sc(C)c(C)c3c(=O)[nH]2)c(=O)[nH]c1=O (centres unmarked),18.5%
10,COc1cccc(N2C(=O)Nc3ccc(Br)cc3C2(O)C(=O)NCCCOC(C)C)c1 (centres unmarked),19.3%
11,O=C(Nc1ncccn1)c1cccs1,10.8%
12,CCCC(=O)Nc1ccc(NCc2ccc(C)s2)cc1,5.96%
13,CCc1ccc(NC(=S)Nn2cnnc2)cc1,13.9%
14,Cc1cccc(NC(=S)N(CCc2ccncc2)C(C)C)c1C,-8.61%
15,COc1ccccc1CNC(=O)CCNS(=O)(=O)c1cccc2nonc12,4.83%
16,CCOC(=O)c1c(NC(=O)CC)sc2c1CCN(Cc1ccccc1)C2.Cl,-14.5%
17,O=C(NCCc1ccccc1)c1ccc(CS(=O)(=O)c2ccc(Br)cc2)o1,10.2%
18,OC(COc1ccc(F)cc1Cl)CN1CCc2ccccc2C1 (centres unmarked),-41.7%
19,NC(=O)COC(=O)CC(NC(N)=O)c1ccc(Cl)cc1 (centres unmarked),17.6%

row,SMILES,"hERG current change (%, negative = inhibition) at 10uM"
1,CCN(C(=O)CN1C(=O)S/C(=C\c2cccc(OC)c2)C1=O)C1CCS(=O)(=O)C1 (centres unmarked),-17%
2,O=C(NCc1cccnc1)Nc1ccc(Cl)cc1Cl,-7.68%
3,Cc1c(C(=O)Nc2ccccc2Cl)oc2ccc(S(=O)(=O)N3CCC4(CC3)OCCO4)cc12,2.81%
4,COc1ccccc1CN(C)C(=O)C1COc2ccccc2O1 (centres unmarked),5.93%
5,Cl.Clc1ccc(COc2cccc(CNCc3ccncc3)c2)cc1,-59.8%
6,COc1nc(NCC(C)C)nc(Oc2ccc(=O)n(-c3ccccc3)n2)n1,-7.3%
7,CC1CC(C)CN(CCCNC(=O)c2ccc3c(c2)NC(=O)C(N2CCCCC2)S3)C1 (centres unmarked),-19.1%
8,Cn1ccnc1C(=O)c1ccccc1Cl,33.7%
9,CN(C)c1nc(OCC(=O)NC(C)(C)C)nc(N(C)C)n1,8.21%
10,CC1(C)C[C@H](O)[C@@]23C[C@@H](OC2=O)[C@]2(C)C(=CCC4[C@@]5(C)CC[C@H](O)C(C)(C)C5CC[C@]42C)[C@@H]3C1 (some centres unmarked),17.7%
11,O=C(Nc1ccc(Cl)cc1)Nc1ccon1,15%
12,CN(C(=O)c1ccccc1C(=O)OCC(=O)Nc1ccccc1)c1ccccc1,0.655%
13,CSc1[nH]c(=O)c(C(=O)O)cc1C#N,8.03%
14,Nc1cccc([N+](=O)[O-])c1,14.9%
15,CNC(=O)C12CC3CC(C1)CC(c1ccc(C)cc1)(C3)C2,-17%
16,CCOC(=O)c1c(C)[nH]c(C(=O)COC(=O)CCC(=O)c2ccc3c(c2)OCCO3)c1C,-2.15%
17,Cc1ccc(Cn2ncc3c(NCCN(C)C)ncnc32)cc1,-0.559%
18,CC(=O)C1=C(O)C(=O)N(Cc2ccco2)C1c1ccccc1 (centres unmarked),10.3%
19,COCCNC(=O)C(c1ccc(F)cc1)N(C(=O)CCC(=O)Nc1ccccn1)c1cccc(C)c1 (centres unmarked),16.2%

row,SMILES,"hERG current change (%, negative = inhibition) at 10uM"
1,CCOC(OCC)P(=O)(C(C)C)C(C)C,6.64%
2,Cc1nnc(SCC2=C(C(=O)O)N3C(=O)C(NC(=O)C(C)n4nc(C(F)(F)F)cc4C)C3SC2)s1 (centres unmarked),17.3%
3,CCOC(=O)C1=C(C)N=c2s/c(=C\c3cccc(OCC(=O)O)c3)c(=O)n2C1c1ccccc1 (centres unmarked),-15.9%
4,C/C(=N\NC(=O)CSc1nc(C)[nH]c1[N+](=O)[O-])c1ccc(F)cc1,11.4%
5,CCC(=O)c1ccc(/C=C/c2nc3ccccc3n2C)o1,-27.7%
6,C=CCn1c(SCC(=O)NNC(=O)Nc2cccc(Cl)c2)nnc1-c1ccccc1,-34.9%
7,c1ccc(-c2ccc(OCCOCCn3cncn3)cc2)cc1,-10.7%
8,COc1ccc(S(=O)(=O)Nc2ccc(N3CCOCC3)cc2)cc1[N+](=O)[O-],1.63%
9,COc1ccc(N2CC(C(=O)N[C@@H](CC(C)C)C(=O)NC3CCCCC3)CC2=O)cc1 (some centres unmarked),13.7%
10,FC(F)(F)c1cccc(CN2CCCCCC2)c1,2.33%
11,O=C(O)C(=O)O.O=C(c1cccc(F)c1)N1CCN(Cc2c[nH]c3ccccc23)CC1,-9.05%
12,Cc1ccc(S(=O)(=O)CCc2nc3ccccc3s2)cc1,-5.74%
13,O=C(CSc1ncn[nH]1)Nc1cc(S(=O)(=O)N2CCCC2)ccc1Cl,9.05%
14,O=C(c1ccc(COc2c(F)c(F)c(F)c(F)c2F)o1)N1CCOCC1,-18%
15,CC1=C(C)C(=O)N(c2ccccn2)C1=O,10.2%
16,Cc1cc(C)c2nc(/N=C(\N)NC(=O)Nc3ccccc3)nc(C)c2c1,-1.13%
17,CCn1c(CCc2nc3ccccc3[nH]2)n[nH]c1=S,46.9%
18,O=C(COC(=O)CCc1nc2ccccc2s1)NC(=O)NCc1ccco1,-11.4%
